In experiment [1] the target is T1, HURP p725 (human (endogenous in HeLa)) (UniProt Q15398).
T1 sequence (chain, phosphoserine at 725): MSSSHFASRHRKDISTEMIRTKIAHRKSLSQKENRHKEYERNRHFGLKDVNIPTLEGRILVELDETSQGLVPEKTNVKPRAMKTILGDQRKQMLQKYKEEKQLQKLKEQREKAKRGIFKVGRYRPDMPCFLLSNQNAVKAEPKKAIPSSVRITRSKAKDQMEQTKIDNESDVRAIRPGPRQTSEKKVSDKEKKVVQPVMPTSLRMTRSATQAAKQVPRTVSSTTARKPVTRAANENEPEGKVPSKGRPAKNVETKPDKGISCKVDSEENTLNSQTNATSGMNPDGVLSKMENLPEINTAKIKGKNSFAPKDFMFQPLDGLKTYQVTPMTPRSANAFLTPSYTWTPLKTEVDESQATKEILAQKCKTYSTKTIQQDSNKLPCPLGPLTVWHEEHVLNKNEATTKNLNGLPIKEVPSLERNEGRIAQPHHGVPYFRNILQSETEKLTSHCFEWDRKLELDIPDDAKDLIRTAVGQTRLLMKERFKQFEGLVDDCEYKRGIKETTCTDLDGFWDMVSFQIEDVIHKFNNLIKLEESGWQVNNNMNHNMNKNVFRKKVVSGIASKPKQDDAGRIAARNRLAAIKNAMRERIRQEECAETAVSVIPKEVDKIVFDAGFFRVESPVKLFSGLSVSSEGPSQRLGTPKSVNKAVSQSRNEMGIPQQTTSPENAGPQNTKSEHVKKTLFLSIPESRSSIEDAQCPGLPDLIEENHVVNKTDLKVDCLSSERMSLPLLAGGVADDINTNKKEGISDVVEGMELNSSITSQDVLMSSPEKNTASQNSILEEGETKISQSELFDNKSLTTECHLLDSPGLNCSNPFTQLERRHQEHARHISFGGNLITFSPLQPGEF
Description: co-IP; HeLa cells, immunoprecipitation with HURP p725 antibodies or np725 antibodies, Western blots of the partners (Fig. 6A, Fig. 7H).

Protein sequences, listed by entry. Tags and fused reporters are not part of them.
UniProt O14744: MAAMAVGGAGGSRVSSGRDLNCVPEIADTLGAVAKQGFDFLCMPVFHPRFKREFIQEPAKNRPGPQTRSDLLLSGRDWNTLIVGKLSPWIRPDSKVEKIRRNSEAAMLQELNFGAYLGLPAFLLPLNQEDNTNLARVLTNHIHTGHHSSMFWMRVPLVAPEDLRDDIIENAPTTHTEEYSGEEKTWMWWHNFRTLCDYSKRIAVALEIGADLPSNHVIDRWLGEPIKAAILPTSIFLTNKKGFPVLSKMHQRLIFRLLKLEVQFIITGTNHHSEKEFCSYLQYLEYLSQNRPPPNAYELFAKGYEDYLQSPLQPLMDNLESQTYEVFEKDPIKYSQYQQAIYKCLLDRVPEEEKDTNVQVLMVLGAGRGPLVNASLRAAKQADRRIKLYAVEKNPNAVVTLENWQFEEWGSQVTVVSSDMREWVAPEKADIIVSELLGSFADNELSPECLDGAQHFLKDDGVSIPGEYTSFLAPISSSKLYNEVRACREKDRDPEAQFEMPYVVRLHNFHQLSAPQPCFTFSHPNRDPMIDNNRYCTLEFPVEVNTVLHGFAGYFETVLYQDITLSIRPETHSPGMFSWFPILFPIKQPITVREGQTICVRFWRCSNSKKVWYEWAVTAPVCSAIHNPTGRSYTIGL
UniProt Q9BQQ3: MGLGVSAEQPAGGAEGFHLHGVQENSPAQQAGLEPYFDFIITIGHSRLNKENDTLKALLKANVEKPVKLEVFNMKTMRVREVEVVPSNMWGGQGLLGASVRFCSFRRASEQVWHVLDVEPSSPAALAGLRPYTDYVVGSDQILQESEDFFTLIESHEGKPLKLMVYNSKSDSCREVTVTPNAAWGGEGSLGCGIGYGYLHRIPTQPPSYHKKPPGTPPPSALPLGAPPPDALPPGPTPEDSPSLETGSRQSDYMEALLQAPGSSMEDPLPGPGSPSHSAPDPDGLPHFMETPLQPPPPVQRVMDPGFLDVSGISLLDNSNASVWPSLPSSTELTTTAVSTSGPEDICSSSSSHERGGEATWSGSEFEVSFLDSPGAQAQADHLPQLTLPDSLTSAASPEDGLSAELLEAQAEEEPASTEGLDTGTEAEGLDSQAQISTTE

The target of experiment [2] is T2, EGFP-HURP 725A (UniProt Q15398).
T2 sequence: T1 sequence (chain, phosphoserine at 725) with S725A
Description: co-IP; 293 cells harboring EGFP, EGFP-HURP WT, 725E or 725A; interaction with GRASP65, GM130 and GP73; precipitating antibody not stated (Fig. 6C).

For experiment [3], the target named is T3, EGFP-HURP 725E (UniProt Q15398).
T3 sequence: T1 sequence (chain, phosphoserine at 725) with S725E
The experiment is described as above.

For experiment [4], the target named is T4, EGFP-HURP WT (UniProt Q15398).
T4 sequence: T1 sequence (chain, phosphoserine at 725)
The experiment is described as above.

Experiment [5] addresses PRMT5 (human (endogenous in HeLa)) (UniProt O14744). Description: co-IP; HeLa cell extract, immunoprecipitation with antibodies against PRMT5, Western blots for PRMT5, HURP, Aurora-A and Ajuba (Fig. 1A). (In general: A western blot detects proteins with antibodies after separation by electrophoresis.)
Experiment [6] has the same target. Description: co-IP; HeLa cells harboring HA-HURP, with or without Myc-Ajuba, or with shLuc or shAjuba; immunoprecipitation with antibodies against PRMT5, Western blots (Fig. 1B).

Where a chain is given by its changes, count along the chain named. Results are given in words; binding and its absence hold for the method and conditions named. In cells and extracts the contact can be indirect. Some entries that bind do so weakly or less than the wild type. For some of these results: Where a sequence is shown, tags or fusion partners need not be part of it.

From paper PMC10294536 come the findings set out here.

Turning to GRASP65 (from UniProt Q9BQQ3 1-440), the binding result in experiment [1] was “binds”; in experiment [2], “no binding”; in experiment [3], “binds”; in experiment [4], “binds”.

B1: GP73 (protein, UniProt Q8NBJ4 1-401)
chain: MMGLGNGRRSMKSPPLVLAALVACIIVLGFNYWIASSRSVDLQTRIMELEGRVRRAAAERGAVELKKNEFQGELEKQREQLDKIQSSHNFQLESVNKLYQDEKAVLVNNITTGERLIRVLQDQLKTLQRNYGRLQQDVLQFQKNQTNLERKFSYDLSQCINQMKEVKEQCEERIEEVTKKGNEAVASRDLSENNDQRQQLQALSEPQPRLQAAGLPHTEVPQGKGNVLGNSKSQTPAPSSEVVLDSKRQVEKEETNEIQVVNEEPQRDRLPQEPGREQVVEDRPVGGRGFGGAGELGQTPQVQAALSVSQENPEMEGPERDQLVIPDGQEEEQEAAGEGRNQQKLRGEDDYNMDENEAESETDKQAALAGNDRNIDVFNVEDQKRDTINLLDQREKRNHTL
In the case of B1, the binding result in experiment [1] is “binds”; in experiment [2] it was “no binding”; in experiment [3], “binds”; in experiment [4] it was “binds”.

B2: GM130 (protein, UniProt Q08379 1-1002)
chain: MWPQPRLPPRPAMSEETRQSKLAAAKKKLREYQQRNSPGVPTGAKKKKKIKNGSNPETTTSGGCHSPEDTPKDNAATLQPSDDTVLPGGVPSPGASLTSMAASQNHDADNVPNLMDETKTFSSTESLRQLSQQLNGLVCESATCVNGEGPASSANLKDLESRYQQLAVALDSSYVTNKQLNITIEKLKQQNQEITDQLEEEKKECHQKQGALREQLQVHIQTIGILVSEKAELQTALAHTQHAARQKEGESEDLASRLQYSRRRVGELERALSAVSTQQKKADRYNKELTKERDALRLELYKNTQSNEDLKQEKSELEEKLRVLVTEKAGMQLNLEELQKKLEMTELLLQQFSSRCEAPDANQQLQQAMEERAQLEAHLGQVMESVRQLQMERDKYAENLKGESAMWRQRMQQMSEQVHTLREEKECSMSRVQELETSLAELRNQMAEPPPPEPPAGPSEVEQQLQAEAEHLRKELEGLAGQLQAQVQDNEGLSRLNREQEERLLELERAAELWGEQAEARRQILETMQNDRTTISRALSQNRELKEQLAELQSGFVKLTNENMEITSALQSEQHVKRELGKKLGELQEKLSELKETVELKSQEAQSLQQQRDQYLGHLQQYVAAYQQLTSEKEVLHNQLLLQTQLVDQLQQQEAQGKAVAEMARQELQETQERLEAATQQNQQLRAQLSLMAHPGEGDGLDREEEEDEEEEEEEAVAVPQPMPSIPEDLESREAMVAFFNSAVASAEEEQARLRGQLKEQRVRCRRLAHLLASAQKEPEAAAPAPGTGGDSVCGETHRALQGAMEKLQSRFMELMQEKADLKERVEELEHRCIQLSGETDTIGEYIALYQSQRAVLKERHREKEEYISRLAQDKEEMKVKLLELQELVLRLVGDRNEWHGRFLAAAQNPADEPTSGAPAPQELGAANQQGDLCEVSLAGSVEPAQGEAREGSPRDNPTAQQIMQLLREMQNPRERPGLGSNPCIPFFYRADENDEVKITVI
In the case of B2, the binding entry is listed as “binds” in experiment [1], “no binding” in experiment [2], “binds” in experiment [3] and “binds” in experiment [4].

B3: HURP (protein, UniProt Q15398 1-846)
chain: T1 sequence (chain, phosphoserine at 725)
For the molecule B3, the binding entry in experiment [5] is recorded as “binds”.

B4: HA-HURP (protein, UniProt Q15398 1-846)
chain: T1 sequence (chain, phosphoserine at 725)
With B4, the binding result in experiment [6] is recorded as “binds”.

B5: Aurora-A (enzyme, UniProt O14965 1-403)
chain: MDRSKENCISGPVKATAPVGGPKRVLVTQQFPCQNPLPVNSGQAQRVLCPSNSSQRIPLQAQKLVSSHKPVQNQKQKQLQATSVPHPVSRPLNNTQKSKQPLPSAPENNPEEELASKQKNEESKKRQWALEDFEIGRPLGKGKFGNVYLAREKQSKFILALKVLFKAQLEKAGVEHQLRREVEIQSHLRHPNILRLYGYFHDATRVYLILEYAPLGTVYRELQKLSKFDEQRTATYITELANALSYCHSKRVIHRDIKPENLLLGSAGELKIADFGWSVHAPSSRRTTLCGTLDYLPPEMIEGRMHDEKVDLWSLGVLCYEFLVGKPPFEANTYQETYKRISRVEFTFPDFVTEGARDLISRLLKHNPSQRPMLREVLEHPWITANSSKPSNCQNKESASKQS
On to B5, for which the binding entry in experiment [5] and in experiment [6] was “binds” in each case.
